The results in this text go back to publication PMC12136788.

The other results are listed elsewhere or left out.

T1: UNK ZnF1-3 (human, UniProt Q9C0B0 31-174)
T1 sequence: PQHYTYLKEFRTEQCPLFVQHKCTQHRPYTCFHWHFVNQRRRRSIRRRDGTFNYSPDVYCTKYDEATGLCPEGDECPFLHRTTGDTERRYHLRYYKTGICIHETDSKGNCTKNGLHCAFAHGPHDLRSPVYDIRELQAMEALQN

B1: chr5:80785125:80785126:-_ENSG00000145687_ENST00000509013|hu_mus|motif|central (ssRNA)
RNA: GGGAGUUCUACAGUCCGACGAUCGGCCGCCAGGGUACCGAGGCGACAUAAAAGGCUGAAAGAACCCUGGUGGCACGGGACCGGCUGGCAUGCCAUCUCCUGGGGGCAUGUUUCCUAGCACGGGGCUGGGAGCUGCUGCAGCACCAACAGAGGAUUGAGCAUCA
B2: chr17:57652765:57652766:+_ENSG00000108406_ENST00000251241|hu_hu|FALSE|FALSE (ssRNA)
RNA: GGGAGUUCUACAGUCCGACGAUCAUCAUAAUCAUAAUCAACAGACUCUGCCAUCUGAAAAAGUAACUCACAACUUUUUUCUAUUUCAAACUGGCCAGUCAGAAAAACCAAGAUGUCUCCAGCCAUUUCAUUCAAAUGGAUAUCCAACAGAGGAUUGAGCAUCA
B3: chr2:114697599:114697600:+_ENSG00000115091_ENST00000536059|hu_mus|FALSE|FALSE (ssRNA)
RNA: GGGAGUUCUACAGUCCGACGAUCGGACUGCUCAGGAGGGAUUCCUACUUCUCGGUCUCGCAGCAGUUGCUGAAUAAAAUAUGUUAUAUCUCUUCCUGCGAUUGGAAUGUGUUUAAUACAGCUGCCGAUAACAUAUCCUUCAGCCAACAGAGGAUUGAGCAUCA
B4: chr17:31789506:31789507:-_ENSMUSG00000061613_ENSMUST00000166526|mus_mus|motif|central (ssRNA)
RNA: GGGAGUUCUACAGUCCGACGAUCAGACUGGGAAGAGUUUUGAGGGUUACGGUAAAUGUUCAAGAGGGCAAUGGUCUGGCGGAAGGUUGGUUUAUUGUGCAACCGAGAACAUCUGUCUCCAUGACGACAUGCUCCGAUUUUGAACAACAGAGGAUUGAGCAUCA
B5: chr5:174939138:174939139:+_ENSG00000164466_ENST00000321442|hu_mus|motif|central (ssRNA)
RNA: GGGAGUUCUACAGUCCGACGAUCACCAACCUUCAGCUCCCUUUGUCUCAUCAGUGGGAUGUUAAUGCAGUUAGCAGCAGCGGCAGCAGCGAAGGGAACAAAACGUCCUAUCAGUGGGGAGACACGCUUGGUUAAGGCAUUGAGCAACAGAGGAUUGAGCAUCA
B6: chr17:65740002:65740003:+_ENSG00000130935_ENST00000581375|hu_hu|hu_hu_hu_mus_False|88_88 (ssRNA)
RNA: GGGAGUUCUACAGUCCGACGAUCAACAAAUCUUUCUUCCCUGGACGCAAGAGUUCAUUCAUAUUAAAAAAAAUAUAUAUCCAUCAAGUUAGGUGUGGUGGCCACACCUUUACUCCCAGCACUUUGGGAGGUGGAUCUCUGAGUCAACAGAGGAUUGAGCAUCA
B7: 19493532_19493652_4060_CDS_ENSG00000127481_ENST00000375254|human|control|control (ssRNA)
RNA: GGGAGUUCUACAGUCCGACGAUCAUUGGCCAGAAUGUUGUAACAACCAGUGAUCAGCUUCUCAUAAACACGAGCCAAGAACUCAUCAGACUCAGCAGGGCCCAAGAUGCGUUCCAGGGAGUUGCUACUGAUCUCGGCAACACUCAACAGAGGAUUGAGCAUCA
B8: chr8:117878989:117878990:-_ENSG00000164754_ENST00000297338|hu_hu|hu_hu_hu_mus_True|58_68 (ssRNA)
RNA: GGGAGUUCUACAGUCCGACGAUCCCAGAGGCCCUCGUUUACUGAGGACAAAAUGUGCGUAGAACAUUGUUCUGGCUGGCUAUGAAAUAAGAAGAAACCUGGAUCUCGGCGGGGAGCCGGGAGGGGUGGGUGGCCCGGGGAGGGCAACAGAGGAUUGAGCAUCA
B9: chr7:149068622:149068623:-_ENSMUSG00000025139_ENSMUST00000001950|mus_hu|mus_mus_mus_hu_False|18_88 (ssRNA)
RNA: GGGAGUUCUACAGUCCGACGAUCGUGAGGCCUCUGAGUGUGGCUUGUGCUCUGCAGUGGGUUAGAGUUGUUAAUAUCACGGAACAUACCAUCUAGAACGUUCCAGUCCCGCCUGACCAUCCACCCUCCAAUGGAGAAGAAAUCCAACAGAGGAUUGAGCAUCA
B10: chrX:161375010:161375011:-_ENSMUSG00000061778_ENSMUST00000112247|mus_mus|FALSE|FALSE (ssRNA)
RNA: GGGAGUUCUACAGUCCGACGAUCCAUCUGGAGGUGGCAAACUGAAACAGAAAAACCCACAUUAAGACAAAGCAUCACACUAGUGUCCCUUUAAGGUUUUCUUUCCUCGGCCGACUUCUUAAGGAGCUCCAUUACAUCACUCCUCAACAGAGGAUUGAGCAUCA
B11: chr13:28239862:28239863:+_ENSG00000186184_ENST00000399697|hu_hu|motif|central (ssRNA)
RNA: GGGAGUUCUACAGUCCGACGAUCCUCUUUAUGAGAGGGCAAUGUGUUUUUAAUUGUGUUAAUUAGAAAUCUUUUAUUGGUGCGGGCAAGAGGACACUUCAUCCAACCCAUGGGUCCCAUUGUUUCAGCUCUAGUUUUCCCACGCAACAGAGGAUUGAGCAUCA
B12: chr7:141441981:141441982:+_ENSG00000106028_ENST00000265304|hu_mus|hu_hu_hu_mus_False|88_88 (ssRNA)
RNA: GGGAGUUCUACAGUCCGACGAUCCUCAUGUCUUACAAACUGACGAAGUACCUGUAACACAGGUCUUCGAAACAUGGCUUCUGUUUUUCUUACAACCUAAUCUUUAGGCUUUUCCUAAAGGAAAGAAAGAAAAGAGAAAAAUGACAACAGAGGAUUGAGCAUCA
B13: chr7:37554838:37554839:+_ENSMUSG00000021217_ENSMUST00000021641|mus_mus|FALSE|FALSE (ssRNA)
RNA: GGGAGUUCUACAGUCCGACGAUCGACCGGUGUCUCCAUGAUGGGCUUCCCCUUCUUCAUGGCCGAGUUUGUGACCUUGAUAAAGUGGCCAGUGACCAUCAUGUGAGCUGUGAGCUCCUGGAGCGUGUCAUGGGAGCUUCCACACAACAGAGGAUUGAGCAUCA
B14: chr2:202488911:202488912:-_ENSG00000155755_ENST00000286196|hu_mus|hu_hu_hu_mus_False|48_48 (ssRNA)
RNA: GGGAGUUCUACAGUCCGACGAUCAUUGAAACAUUUUUCAUAAUCUCCAGUAGCAUUUCAGCAUUAUGUAACAAAAGCUCAAUUGUAAAUACACAUGUCUUAUAAAAAUACACUUAAAAACACGAGUGGGGAGCGCAGGCGCCACAACAGAGGAUUGAGCAUCA
B15: chr2:103900078:103900079:+_ENSMUSG00000027180_ENSMUST00000028603|mus_mus|motif|central (ssRNA)
RNA: GGGAGUUCUACAGUCCGACGAUCGAAGUCUGGUCUGGUGUAGGCAUGGUGCACACAUCUAGCACUUGGGAGGCAAUCGAGCGGUAGACACCCUGAAUGUUGGACAUGCCAUGUGGAAUCGGGGGAUGGCAACAUUAAAGACCUCAACAGAGGAUUGAGCAUCA
B16: chr11:115359187:115359188:-_ENSMUSG00000020737_ENSMUST00000021083|mus_mus|FALSE|FALSE (ssRNA)
RNA: GGGAGUUCUACAGUCCGACGAUCGUACAUAAGAGUCUCUACACAUCAGGAACCAGAUCAUCUGUUCUUAGAAACAGUCUACUACUCCAGUCUACUACUAGAAAACACUCAUGCCAUGGCGCACAGACCCAGGAGUCAGACAGACAACAGAGGAUUGAGCAUCA
B17: chr16:94664741:94664742:+_ENSMUSG00000040785_ENSMUST00000117648|mus_hu|mus_mus_mus_hu_False|18_38 (ssRNA)
RNA: GGGAGUUCUACAGUCCGACGAUCUGGUACUGAUCUUGGUAGCUGAUAUUCAGGAGAAAGGCUGGCCAAGGGUGUAUAUAUGCUGGUGUACUGGGGCAGGCUAGGUAACACGUUUAUGUACGCUGGUGGUGUCUGGGUGAUAUCCAACAGAGGAUUGAGCAUCA
B18: chrX:21990627:21990628:+_ENSG00000102172_ENST00000404933|hu_hu|FALSE|FALSE (ssRNA)
RNA: GGGAGUUCUACAGUCCGACGAUCCACCCGCCCAGUACUGUCCUGACUCAAUUCUUUCAUUCUUUCCUCUACUUUGUUCAAAAUACUGUCGAUCUCUUCUUUGCCUUGCGCAUCACCAUCAUAACUCUGAAGGUCCAGCAACACCAACAGAGGAUUGAGCAUCA
B19: chr7:141441981:141441982:+_ENSG00000106028_ENST00000265304|hu_mus|hu_hu_hu_mus_False|28_38 (ssRNA)
RNA: GGGAGUUCUACAGUCCGACGAUCCUCAUGUCUUACAAACUGACGAAAUACCUGUAACACAGGUCUUCGAAACAUGGCUUCUGUUUUUCUUACAACCAGUCUAAUCUUUAGGCUUUUAAGGAAAGAAAGAAAAGAGAAAAAUGACAACAGAGGAUUGAGCAUCA
B20: chrX:140365796:140365797:-_ENSMUSG00000031285_ENSMUST00000033642|mus_mus|mus_mus_mus_hu_False|28_48 (ssRNA)
RNA: GGGAGUUCUACAGUCCGACGAUCCUUCUCAUUACUCAGUGCCUGCAAGGUUCUGGUUCGGUAGAAGCUACAGUGGGCGCUGUGAGUGGGACUUGGAAACCCAUUCAUCCGUGACCCUCGCAUGUUCCUGGAUGUCUUAUCUCUCAACAGAGGAUUGAGCAUCA
B21: chr16:70566459:70566460:+_ENSG00000189091_ENST00000302516|hu_mus|FALSE|FALSE (ssRNA)
RNA: GGGAGUUCUACAGUCCGACGAUCAAGGAAGUUGCCAUGUUCCUCCAAGGGUUCACUGUAUUUCCGAACCACAUGAUUUAAGCCAAGGUCCAGUUCAUAGAAAGUAAGUGUCUGCUGGGUAUUGGCUGCUGCUUCCCCUGUUGGCAACAGAGGAUUGAGCAUCA
B22: 124027937_124028057_2223_ncRNA_ENSMUSG00000049550_ENSMUST00000125340|mouse|control|control (ssRNA)
RNA: GGGAGUUCUACAGUCCGACGAUCCUCACUCAUCAAGCACAGUGGAUAACCUUAAGGGGAGACGGGGCAGAGGCCUAUAUACAAUGACGGAAGUUCUCGUCCUGCACACUGCGUGGAGGUGCAUGUGGCUCCUUUUUACAUAUUCAACAGAGGAUUGAGCAUCA

The experiment addresses T1, UNK ZnF1-3. Put plainly: nsRBNS (natural sequence RNA bind-n-seq); RBNS binding buffer (assumed for nsRBNS): 25 mM Tris pH 7.5, 150 mM KCl, 3 mM MgCl2, 0.01% Triton X-100, 500 ug/ml BSA, 20 U/ml SUPERase-In, 4 C; UNK is unkempt and MSI1 is Musashi-1; names of the RNAs are library labels; protein concentration not given here; high values mean tight binding.
In turn, B1 came in with a binding signal of 0.698 enrichment R. With B2 the figure was 0.963 enrichment R; with B3, 0.791 enrichment R.

Take B4: the binding signal came to 1.22 enrichment R.

As for B5, the binding signal amounted to 1.95 enrichment R.

In the case of B6, the binding signal was 0.993 enrichment R. B7 gave a binding signal of 0.689 enrichment R. With B8 the figure was 1.84 enrichment R; with B9, 0.787 enrichment R. As for B10, the figure is 1.18 enrichment R; as for B11, 0.871 enrichment R.

Regarding B12, the binding signal came out at 0.576 enrichment R. With B13 the figure was 0.614 enrichment R; with B14, 0.977 enrichment R. As for B15, the figure is 1.21 enrichment R; as for B16, 1.2 enrichment R. Regarding B17, the binding signal is 1.14 enrichment R. B18: the binding signal came to 0.997 enrichment R. With B19 the figure was 0.726 enrichment R; with B20, 0.595 enrichment R. As for B21, the figure is 0.76 enrichment R; as for B22, 1.32 enrichment R.
